Article PMC4336329 (PLoS ONE, 2015)
Out of some 310,000 compounds screened, about 2,200 (0.71%) showed an effect of 50% or more. The effect is printed as a negative number. This is one part of the list.

molecular target: human ether-à-go-go-related gene (hERG) potassium channel (human, UniProt Q12809); assay: primary screen, population patch clamp on CHO cells stably expressing hERG
Sequence (Q12809 whole entry, looked up): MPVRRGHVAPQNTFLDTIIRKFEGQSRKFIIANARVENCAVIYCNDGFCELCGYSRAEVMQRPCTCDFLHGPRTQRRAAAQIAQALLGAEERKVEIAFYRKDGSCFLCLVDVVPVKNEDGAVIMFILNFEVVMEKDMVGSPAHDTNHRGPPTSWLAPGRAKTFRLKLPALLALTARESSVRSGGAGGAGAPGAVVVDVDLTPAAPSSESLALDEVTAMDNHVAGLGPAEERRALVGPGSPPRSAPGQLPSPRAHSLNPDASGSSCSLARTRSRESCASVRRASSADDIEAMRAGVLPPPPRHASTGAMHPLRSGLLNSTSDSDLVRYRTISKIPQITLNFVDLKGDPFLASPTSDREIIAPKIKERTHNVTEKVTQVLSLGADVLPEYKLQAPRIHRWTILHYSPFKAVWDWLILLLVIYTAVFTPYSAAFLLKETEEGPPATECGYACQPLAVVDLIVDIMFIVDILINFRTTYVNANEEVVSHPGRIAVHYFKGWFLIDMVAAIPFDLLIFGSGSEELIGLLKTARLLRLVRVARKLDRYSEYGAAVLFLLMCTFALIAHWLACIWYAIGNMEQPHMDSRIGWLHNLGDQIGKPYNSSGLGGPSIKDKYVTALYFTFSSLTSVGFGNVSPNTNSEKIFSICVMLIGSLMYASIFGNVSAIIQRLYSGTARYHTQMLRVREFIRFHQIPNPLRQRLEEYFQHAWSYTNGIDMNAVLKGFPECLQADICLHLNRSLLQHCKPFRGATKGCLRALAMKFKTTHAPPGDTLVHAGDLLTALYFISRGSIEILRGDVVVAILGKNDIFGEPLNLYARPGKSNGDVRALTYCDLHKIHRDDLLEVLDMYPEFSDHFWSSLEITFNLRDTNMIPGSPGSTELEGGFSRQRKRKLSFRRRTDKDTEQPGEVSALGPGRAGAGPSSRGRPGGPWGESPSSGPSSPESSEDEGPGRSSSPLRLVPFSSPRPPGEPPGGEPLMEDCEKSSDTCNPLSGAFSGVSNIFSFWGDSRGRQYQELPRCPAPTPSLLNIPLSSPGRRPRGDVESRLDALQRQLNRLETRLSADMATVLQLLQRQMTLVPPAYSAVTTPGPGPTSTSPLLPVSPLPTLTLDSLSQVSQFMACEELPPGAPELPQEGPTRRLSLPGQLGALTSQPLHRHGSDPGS

Structure (SMILES)	hERG current change (%, negative = inhibition) at 1uM
Cc1ccc(-c2c3c(=O)n(C)c(=O)n(C)c3cn2Cc2cccnc2)cc1	1.2%
CCC(C)c1ccccc1NC(=O)C1CCCO1 (stereo not drawn)	13.2%
COc1ccc(CC(=O)OCC(=O)c2ccc(OC)c(OC)c2)cc1	-0.414%
CCOC(=O)C(NC(C)=O)C(=O)Nc1ccc(C(C)(C)C)cc1 (stereo not drawn)	6.96%
CCOCCOC(=O)c1ccc(-n2cncn2)nc1	3.27%
O=C1c2ccccc2C(=O)N1CCN1CCOCC1	12.3%
O=C(OCCN1C(=O)c2ccccc2C1=O)c1ccccc1	2.43%
Cc1ccc2c(CN(C)Cc3cccc(F)c3)cc(=O)oc2c1C	13.4%
Cc1ccc(C(=O)NCCNC(=O)c2ccc(F)cc2)cn1	7.7%
COc1ccc(NC(=O)C(=O)NCCC2CCCCN2S(=O)(=O)c2cccs2)cc1 (stereo not drawn)	10.8%
COc1ccc(-c2csc3ncnc(N4CCN(c5ccccc5O)CC4)c23)cc1	13.4%
COc1cnn(-c2ccccc2)c(=O)c1N(C)C	5.94%
CCOc1ccc(N2C=Nc3ccc(OCC)cc3C2)cc1	-18.3%
CS(=O)(=O)Nc1ccc(-c2ccc(/C=C3\SC(N)=NC3=O)o2)cc1	8.58%
Oc1c(C(c2cccs2)N2CCOCC2)sc2ncnn12 (stereo not drawn)	10.2%
CC(=O)c1ccc(NC(=O)C(C)OC(=O)COc2ccc(C#N)cc2)cc1 (stereo not drawn)	-0.605%
Cn1c(SCC(=O)Nc2cccc(F)c2)nnc1-c1cc2ccccc2o1	10.5%
CC(=O)c1ccc(NC(=O)CCCCCn2nnc3ccccc3c2=O)cc1	9.23%
C=CCN(C(=O)CCC(=O)Nc1cc(C)on1)C(C(=O)NC1CCCC1)c1cccnc1 (stereo not drawn)	11.2%
COCCNC(=O)C(C)N(c1ccc(OC)cc1)S(C)(=O)=O (stereo not drawn)	3.04%
Cc1nnc(SCC(=O)Nc2nc(-c3ccc(F)cc3)cs2)[nH]c1=O	8.8%
O=C(CSc1nnc(-c2c[nH]c3ccccc23)o1)c1ccccc1	5.05%
CC(Sc1nc2ccccc2c(=O)n1CC1CCCO1)C(=O)N(C)Cc1ccccc1 (stereo not drawn)	-16.1%

Structure (SMILES)	hERG current change (%, negative = inhibition) at 1uM
CN(C(=O)c1ccco1)c1nc(-c2ccc(Cl)cc2)cs1	7.02%
COC(=O)C1=C(C)N(Cc2ccccc2)C(=NCCCCO)N[C@H]1c1ccccc1	1.53%
N#Cc1nc(COc2cccc(Cl)c2)oc1N1CCCC1	10.3%
COc1cc(CN2CCCCCC2)cc(OC)c1	12.5%
O=c1c2cc(NC(=S)N3CCCCCC3)ccc2nc2n1CCCCC2	0.0359%
CCOC(=O)c1ccc2[nH]c(C)c(CCC(C)=O)c(=O)c2c1	7.58%
CCc1cccc(NC(=O)C2CCCN(S(=O)(=O)c3cccs3)C2)c1 (stereo not drawn)	7.86%
Cc1ccc(N2CC(NC(=O)C(=O)c3c(C)[nH]c4ccccc34)CC2=O)cc1C (stereo not drawn)	7.65%
Fc1ccc(Cl)cc1/C=N/n1cnnc1SCc1ccccc1	16.1%
O=C(O)/C(=C\c1ccco1)NC(=O)c1ccco1	13.9%
Cc1ccc(S(=O)(=O)NC(N)=NCCc2ccc(Cl)cc2)cc1	13.3%
COC(=O)c1sc(NC(=O)CSc2n[nH]c(N)n2)c(C(=O)OC)c1C	10.5%
CCCCCCNC(=O)N[C@H](Cc1ccc(O)cc1)C(=O)NCCC[C@H]1CN2C(=NC[C@H]2CCC)N1CC1CCC1	15.3%
S=C(Nc1ccc(Oc2ccccc2)cc1)NC1CCCC1	9.65%
O=C1NCCN1CCNS(=O)(=O)c1ccc(F)cc1	9.41%
CCN(C(=O)C(=O)c1c[nH]c2ccccc12)c1ccccc1	12.1%
CC(=O)Nc1ccc(S(=O)(=O)NCC(=O)OCC(=O)c2cc(C)n(-c3ccc4c(c3)OCO4)c2C)cc1	5.91%
CC(=O)OCC1=C[C@@H]2OC(=O)C3=CO[C@@H](O[C@@H]4O[C@H](CO)[C@@H](O)[C@H](O)[C@H]4O)[C@H]1[C@@H]32	12.9%
COc1ccc(-c2nnc(NC(=O)CSc3ccc(Cl)cc3)s2)cc1OC	2.61%
CSc1nc(N)n2nc(C(C)(C)C)cc2n1	9.83%
CC(C)(C)c1ccc(-c2noc(-c3ccno3)n2)cc1	15.4%
Cc1nonc1NC(=O)CSc1nc2ccccc2[nH]1	2.55%
COc1cccc(CN(C)C(=O)CNC(=O)c2ccc3c(c2)OCO3)c1OC	20.1%

Structure (SMILES)	hERG current change (%, negative = inhibition) at 1uM
CCCC(C(=O)NC(C)(C)C)N(C(=O)c1snc(C(N)=O)c1N)c1ccc2c(c1)OCCO2 (stereo not drawn)	7.46%
O=C(c1ccc(F)cc1)N1CCC(n2nnc3ccccc32)CC1	0.577%
Cc1nc(-c2ccc(F)cc2)c(CC(=O)N2CCN(S(=O)(=O)c3cccc(Cl)c3)CC2)s1	7.19%
Cc1ccc(N(CC(=O)Nc2cccc(C)c2)S(=O)(=O)c2cccc3nonc23)cc1	11.2%
COc1ccc(CCNC(=O)Cn2c(=O)n(CC3CCCO3)c(=O)c3ccccc32)cc1OC (stereo not drawn)	3.58%
S=C(Nc1ccccc1Cl)N1CCCCCC1	6.54%
Cc1cc(Cn2nc(-c3ccccc3)cc2C(=O)NCc2cccc(Br)c2)on1	6.53%
CCC1CCCCN1C(=O)CSc1nnc(CNC(=O)c2cc(OC)c(OC)c(OC)c2)o1 (stereo not drawn)	10.6%
Cc1ccc(NC(=O)Cn2ncc(Cl)c(Cl)c2=O)cc1S(=O)(=O)N1CCCCC1	2.28%
CC(=O)c1ccc(S(=O)(=O)NC2CC(=O)N(c3ccc(C)cc3)C2)cc1 (stereo not drawn)	8.75%
Cc1cc(NC(=O)c2ccc(Cl)cc2Cl)no1	9.22%
COc1ccc(C2(CNS(=O)(=O)c3ccc(C)cc3)CCOCC2)cc1	12.4%
O=c1c2cn[nH]c2nc(SCc2cc(=O)n3cc(Br)ccc3n2)n1-c1ccc(Br)cc1	7.81%
O=C(CCCn1c(=O)[nH]c2ccsc2c1=O)NC1CCCCC1	16.8%
CC(C)OCCCNC(=O)C(C)Oc1ccccc1 (stereo not drawn)	-1.34%
Cc1ccn2cc(CNC(=O)c3ccc(Br)o3)nc2c1	-15.3%
Cc1ccc(S(=O)(=O)/N=C(/Nc2c(C)n(C)n(-c3ccccc3)c2=O)c2ccccc2)cc1	-0.737%
CC(C)Nc1nc2nonc2nc1Nc1ccccc1	10.9%
COc1cccc(/C=N/NC(=O)Cn2cnc3c2c(=O)n(C)c(=O)n3C)c1	9%
CCN(Cc1ccncc1)C(=O)Cc1cccs1	4.08%
Cc1cc(C)cc(NC(=O)C(c2ccccc2)N2CCCC2)c1 (stereo not drawn)	12.6%
COc1cc(-c2[nH]ncc2CN2CCc3sccc3C2)cc(OC)c1OC	6.26%
O=C(CN1CCN(c2ccc(F)cc2)CC1)c1ccc2c(c1)OCO2	-0.884%

Structure (SMILES)	hERG current change (%, negative = inhibition) at 1uM
CSc1c(-c2ccccc2)nc2ccc(Cl)cc2c1C(=O)O	3.52%
CCS(=O)(=O)c1ccc2c(c1)NC(=O)C(CCO)O2 (stereo not drawn)	7.07%
O=C(CNC(=O)c1ccccc1F)NC1=NCCS1	31.6%
CC(=O)c1ccc(NC(=O)CSc2nnc(-c3ccco3)o2)cc1	-5.71%
Cc1c(Cl)cccc1NC(=S)N(CCCN1CCOCC1)Cc1ccco1	-17.3%
COc1ccc(/C(C)=N/NC(=O)CNC(=O)c2cccs2)cc1OC	2.16%
C=CCn1c(SCC(=O)Nc2ccc(O)cc2)nc2sc(CC)cc2c1=O	-17.3%
CC(C)N(C(=S)Nc1cccnc1)c1ccccc1	12.4%
CCCCNC(=O)C1CCCN1S(=O)(=O)c1cccc2nsnc12 (stereo not drawn)	4.06%
CCCCCCSc1nc2c(c(=O)[nH]c(=O)n2C)n1C	18.1%
COc1ccc(CO[C@@H]2O[C@H](CO)[C@@H](O)[C@H](O)[C@H]2NC(C)=O)cc1OC	14.1%
CCNC(=O)CCSc1nnc(-c2ccco2)o1	7.56%
COc1cc2ccccc2cc1C(=O)Nc1ccc2oc(=O)ccc2c1	10.5%
CCOC(=O)C1=C(C)OC(N)=C(C#N)C1c1cc(Cl)c(OCC(N)=O)c(OC)c1 (stereo not drawn)	1.08%
CCC(OC(=O)CC1Sc2ccccc2NC1=O)C(=O)NCC1CCCO1 (stereo not drawn)	14.3%
Cc1ccc(S(=O)(=O)Nc2nc3cc(C)c(C)cc3[nH]2)cc1	11.2%
CC12CCC(C(=O)N(CC(O)CN3CCCCCC3)C1=O)C2(C)C.Cl (stereo not drawn)	9.02%
CC(=O)Oc1ccc(/C=C2/C(=O)N(c3ccccc3)N=C2C)cc1	5.44%
CCC1(CC)NC(=O)N(CC(=O)OCC(=O)Nc2cc(C)ccc2C)C1=O	17.3%
CCN(Cc1ccccc1)c1ccc(/C=N/NC(=O)c2cccc(S(=O)(=O)N3CCOCC3)c2)cc1	12.9%
CCc1nnc(NC(=O)CC23CC4CC(CC(Br)(C4)C2)C3)s1	14.2%
